The results in this text go back to US20070099199A1.

For experiment [1], the target named is T1, HPV16 E6 C-terminal PDZ ligand (PL) peptide, biotinylated (human papillomavirus type 16). Briefly: G assay ELISA; immobilised GST-PDZ, biotin-peptide 10 uM.
The target in experiment [2] is T1, HPV16 E6 C-terminal PDZ ligand (PL) …. As to the kind of experiment: Matrix/G assay ELISA; E6 peptide titrated on GST-PDZ. (In an ELISA, binding on a coated surface is turned into a signal by an enzyme label.)
Experiment [3] shares this target. As to the kind of experiment: G assay ELISA; E6 PL peptide titrated on constant GST-PDZ.
Experiment [4] deals with HPV E6 #16 PDZ ligand peptide (C-terminal peptide of the E6 protein of HPV 16) (HPV 16). As to the kind of experiment: G assay ELISA, immobilised GST-PDZ, biotin peptide 10 uM.

Values joined by “and” are separate entries in the source; they are usually repeats but may differ in a detail not shown here. Equal entries are not always repeated.

B1: GST-HEMBA 1003117 PDZ domain 1, clone #226.2 (protein)
chain: [about 200 residues not printed]SDLIEGREDFCYVFTVELERGPSGLGMGLIDGMHTHLGAPGLYIQTLLPGSPAAADGRLSLGDRILEVNGSSLLGLGYLRAVDLIRHGGKKMRFLVAKSDVETAKKI
For the molecule B1, in experiment [1], the Ave OD amounted to 0.36 A450 nm and the OD S/N (ratio vs GST only) turned out to be 1.66.

B2: GST-KIAA1526 PDZ domain 1, clone #119.1 (protein)
chain: [about 200 residues not printed]SDLIEGRPDSAGPGEVRLVSLRRAKAHEGLGFSIRGGSEHGVGIYVSLVEPGSLAEKEGLRVGDQILRVNDKSLARVTHAEAVKALKGSKKLVLSVYSAGRIPGGYVTNH
Turning to B2, in experiment [1], the Ave OD was 0.425 A450 nm and the OD S/N (ratio vs GST only) came out at 1.38.

B3: GST-SIP1 PDZ domain 1 (protein)
chain: [about 200 residues not printed]SDLIEGRIRLCRLVRGEQGYGFHLHGEKGRRGQFIRRVEPGSPAEAAALRAGDRLVEVNGVNVEGETHHQVVQRIKAVEGQTRLLVVDQN
Broadly, the EC50 is the concentration at which the effect is half-maximal. A lower EC50 goes with an effect from little substance. Turning to B3, the values for the half-maximal effective concentration (EC50) in experiment [2] and in experiment [3] were 7500 nM and 7.5 µM, respectively.

B4: GST-KIAA1719 PDZ domain 5 (protein)
chain: [about 200 residues not printed]SDLIEGRIQTTGAVSYTVELKRYGGPLGITISGTEEPFDPIVISGLTKRGLAERTGAIHVGDRILAINNVSLKGRPLSEAIHLLQVAGETVTLKIKKQLDR
With B4, in experiment [1], the Ave OD was found to be 0.39 A450 nm and the OD S/N (ratio vs GST only) turned out to be 1.81.

B5: GST-MAGI1 PDZ domain 2 (protein)
chain: [about 200 residues not printed]SDLIEGRPSELKGKFIHTKLRKSSRGFGFTVVGGDEPDEFLQIKSLVLDGPAALDGKMETGDVIVSVNDTCVLGHTHAQVVKIFQSIPIGASVDLELCRGYPLPFDPDDPN
Molecule B5 returned a concentration for a half-maximal effect (EC50) in experiment [2] of 56 nM.

B6: GST-NeDLG PDZ domains 1, 2 (protein)
chain: [about 200 residues not printed]SDLIEGRYEEIVLERGNSGLGFSIAGGIDNPHVPDDPGIFITKIIPGGAAAMDGRLGVNDCVLRVNEVDVSEVVHSRAVEALKEAGPVVRLVVRRRQPPPETIMEVNLLKGPKGLGFSIAGGIGNQHIPGDNSIYITKIIEGGAAQKDGRLQIGDRLLAVNNTNLQDVRHEEAVASLKNTSDMVYLKVAKPGSL
On to B6, for which, in experiment [4], the Ave OD was 3.4 A450 nm and 3.12 A450 nm; the OD S/N (ratio to GST-only well) is 19.8 and 17.1.

B7: GST-DLG3 PDZ domains 1-2 (protein)
chain: [about 200 residues not printed]SDLIEGRYEEIVLERGNSGLGFSIAGGIDNPHVPDDPGIFITKIIPGGAAAMDGRLGVNDCVLRVNEVDVSEVVHSRAVEALKEAGPVVRLVVRRRQPPPETIMEVNLLKGPKGLGFSIAGGIGNQHIPGDNSIYITKIIEGGAAQKDGRLQIGDRLLAVNNTNLQDVRHEEAVASLKNTSDMVYLKVAKPGSL
Take B7: the 50% effective concentration (EC50) in experiment [2] was 3800 nM; in experiment [3] it was 3.8 µM.

B8: GST-PDZK1 PDZ domains 2, 3, 4 (protein)
chain: [about 200 residues not printed]SDLIEGRQTWTQPRLCYLVKEGGSYGFSLKTVQGKKGVYMTDITPQGVAMRAGVLADDHLIEVNGENVEDASHEEVVEKVKKSGSRVMFLLVDKETDKRHVEQKIQFKRETASLKLLPHQPRIVEMKKGSNGYGFYLRAGSEQKGQIIKDIDSGSPAEEAGLKNNDLVVAVNGESVETLDHDSVVEMIRKGGDQTSLLVVDKETDNMYRLAHFSPFLYYQSQELPNGSVKEAPAPTPTSLEVSSPPDTTEEVDHKPKLCRLAKGENGYGFHLNAIRGLPGSFIKEVQKGGPADLAGLEDEDVIIEVNGVNVLDEPYEKVVDRIQSSGKNVTLLVCGKKAYDYFQAK
For B8, in experiment [4], the Ave OD was found to be 0.518 A450 nm and the OD S/N (ratio to GST-only well) was 2.64.

B9: GST-DLG2 PDZ domain 3 (protein)
chain: [about 200 residues not printed]SDLIEGRIWAVSLEGEPRKVVLHKGSTGLGFNIVGGEDGEGIFVSFILAGGPADLSGELQRGDQILSVNGIDLRGASHEQAAAALKGAGQTVTIIAQYQPED
As for B9, in experiment [2], the concentration giving a half-maximal response (EC50) worked out at 1600 nM. Also, in experiment [4], the Ave OD was 3.43 A450 nm and 1.27 A450 nm; the OD S/N (ratio to GST-only well) is 20.4 and 8.53. In addition, in experiment [3], the EC50 amounted to 1.6 µM.

B10: GST-PTPL1 PDZ domain 2 (protein)
chain: [about 200 residues not printed]SDLIEGRGDIFEVELAKNDNSLGISVTGGVNTSVRHGGIYVKAVIPQGAAESDGRIHKGDRVLAVNGVSLEGATHKQAVETLRNTGQVVHLLLEKGQSPTSK
Turning to B10, in experiment [1], the Ave OD worked out at 0.348 A450 nm and the OD S/N (ratio vs GST only) was 1.8.

B11: GST-MINT1 PDZ domains 1, 2 (protein)
chain: [about 200 residues not printed]SDLIEGRIHFSKSENCKDVFIEKQKGEILGVVIVESGWGSILPTVIIANMMHGGPAEKSGKLNIGDQIMSINGTSLVGLPLSTCQSIIKGLKNQSRVKLNIVRCPPVTTVLIRRPDLRYQLGFSVQNGIICSLMRGGIAERGGVRVGHRIIEINGQSVVATPHEKIVHILSNAVGEIHMKTMPAAMYRLL
Consider B11, for which, in experiment [4], the Ave OD was found to be 0.608 A450 nm and the OD S/N (ratio to GST-only well) came to 2.11. Also, in experiment [1], the Ave OD is 0.365 A450 nm and the OD S/N (ratio vs GST only) amounted to 1.42.
